Some compounds were tested as several samples or in several runs, with calls that do not always agree.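 The endpoint reported here, percent growth, reads 100 for growth as untreated, 0 for no net growth and -100 for all cells dead.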 A number of entries come with more than one value. The list is limited to them. The calls were made as follows: active = growth percent below 10; inactive = the rest. There may be further records. These are repeated runs of one drug, at its own concentration, as given; one value stands for one run. Marks such as (2×) stand for listed records that agree.
What was measured:
HOP-62 NSCLC = experiment: NCI-60 one-dose screen, 48 h (100 = growth as untreated, 0 = no growth, -100 = all killed); conditions: 2.5 mM
NCI-H460 lung = experiment: as above; conditions: 2.5 mM

With `O=c1[nH]cc(F)c(=O)[nH]1` the growth (HOP-62 NSCLC; runs of 1991) was “inactive: 20.5, 22.5, 13.2, 29.2, 17.7, 24.7% and active: -34.9, 3.68, -31.2, -24.9, -0.327, 3.42, 6.45, -46.3, -14.3, 5.89, -53.8, -2.58, -66.8%”, the growth (HOP-62 NSCLC; runs of 1992) was “inactive: 20.3, 14.7, 24.4, 20.8, 12 (2×), 31.6, 10.6 (2×), 46.2, 22.4, 15.8, 17.4, 23.2, 10.3, 24.3, 23, 20.1, 10.5, 14.3, 20, 17.5, 14.9, 12.3, 14.8, 25.6, 20.6, 23.3, 27.1, 13.3, 14.1, 49.8, 18.7, 30.3, 15.5, 27.8% and active: 0.0673, 4.96, -31, -37.1, -38.5, -28.2, -4.63, -28.5, -10.4, -61.6, 5.13, -17.1, 8.05, 8, -0.253, -17.2, -15.1, -16.5, -17.4, -39.9, 2.71, -3.01, 3.32, 3.31, -6.36, -8.2, -29.6, 3.56, -17.5, -21.4, -5.79, -0.441, -21.5, 4.91, -33.3, -26.8, -31.6, 0.0724, -19.9, 0.201, -4.7, -6.69, 5.09, -0.396, -27.6, -16.2, 7.96, -30.3, -37.5, -22.9, 1.64, 2.06, -10.1, -22, -11.7, -24.1, -49.6, 8.52, -29.3, -46.5, -54.5, -16.8, -21.3, -18.9, 9.02, -25.9, -50.3, 0.251, -35.9, 1.48, -22.3, -40.9, -5.72, -7.45, -42.5, 8.43, -0.42%” and the growth (HOP-62 NSCLC; runs of 1993) was “active: -2.9, -21.3, -4.73, -9.25, 5.47, 3.26, 4.65, -56.4, 9.66, 4.49, -14.1, -4.51, -25.4, -31.8, -12.7, 5.12, -13.6, 9.12, -9.33, -8.43, -20.9% and inactive: 26.6, 28.3, 18.6, 36.4, 35.2, 50.8, 30.2, 18.1, 27.1, 30.4, 21.9, 22.7, 11.8, 14.6, 13.1, 21.8, 48.8, 21, 86.9, 28, 40.1, 53, 26.1, 17.7, 24.2, 25.9, 31.9, 44.5%”. The growth (HOP-62 NSCLC; runs of 1994) was “active: 4.4, -5.51, -31.2, -35.6, -25.3, -18.1, -42, -39.4, 0.242, -17.3, -48.5, -17.6, 3.38, -28.7% and inactive: 33.1, 11.1, 14.9, 11.8, 11.5, 28.3, 42.3, 14.3 (2×), 18.5, 14, 10.6, 13.5, 31.9, 26.1, 28.8, 23.2, 15, 19.1%”, the growth (HOP-62 NSCLC; runs of 1995) was “inactive: 37.2, 27.3, 10.7, 13.4, 25, 33.6, 83.7, 24.4, 24.7, 12.1, 18.4, 29.1, 31.8, 38.3, 15.4, 32.3, 25.7, 22.9, 20.8, 18.8, 13, 21.6% and active: -29.9, 3.54, -21.1, -13.5, 4.21, -15.2, -23.5, -41.2, -18.6, -14.1, -21.4, 5.86, -12.6, 4.94%” and the growth (HOP-62 NSCLC; runs of 1996) was “inactive: 37.8, 22.3, 30.3, 23.3 (2×), 33.4 (2×), 10.9, 24.7, 30, 11.1, 14.3, 11.3, 16.3, 31.1, 26.1, 23.6, 38, 13.5, 41.1, 23.7, 15.3, 35.6, 28.3, 21.1, 21.6, 35.2, 29.3, 22.8, 26.6, 18, 15.6, 17.5, 44.5, 42.5, 27.3, 14.8, 34% and active: 7.28, 1.78, 6.84, 2.27, -19.3, -15.6, 6.72, -13.6, 7.79, 2.58, 9.69, 0, 4.33, 0.891, 9.27, -8.87%”. For the same molecule, the growth (HOP-62 NSCLC; runs of 1997) was “inactive: 27.7, 43.5, 14.1, 23.2 (2×), 35.1, 13.7, 19.9, 33.5, 23.5, 21.4, 26.5, 25.5, 42.9, 12.1, 30.9, 14.2, 23.1 (2×), 10.4, 20.3, 19.2, 31, 20.4, 24.7, 15.2, 15.7, 35.2, 30.3, 17.6% and active: -4.3, 5.58, 7.4, 3.54, 4.09, 9.4, 6.9, -8.73, -36.1, 4.62, -16.4%”, the growth (HOP-62 NSCLC; runs of 1998) was “inactive: 17.7, 25.7, 17.4, 23.6, 33.5, 34.8 (2×), 10.8, 43.5, 27.5, 19.5, 32.6, 18.7, 25.9, 23.5, 36.2, 25.8, 48, 30, 11.5% and active: 6.33, -26.6, -13.1, -17.7%” and the growth (HOP-62 NSCLC; runs of 1999) was “inactive: 36.2, 16.9, 26.8, 32.5% and active: 5.13, -11.2, 8.53, 1.79, -31.5, 0.837, -3.64, 5.72, 2.17, -57.6, 2.81%”. The growth (HOP-62 NSCLC; runs of 2000) was “active: 9.75, 1.65, 6.31, 0.756%”, the growth (NCI-H460 lung; runs of 1991) was “inactive: 95.1%, 21%, 14.6% and active: -28.7, -23.8, -23, -5.51, 4.28, -6.01, -61.9, -31.6, -52.8, 0.155, -9.52, -61.4, -31.8, -8.51, -6.94, -52.2, -53.3%” and the growth (NCI-H460 lung; runs of 1992) was “active: -52.3, -49.1, -9.52, -10.9, 0.935, -6.1, -33.2, -64.9, -6.3, -33.5, -45.1, -63.1 (2×), -14.2, -5.98, 8.06, -24.8, -32.9, 0.35, -17.1 (2×), -46.1, -60.9, 0.803, -44.6, -73.9, -11.7, -34.6, -60.4, -58.2, -53.1, -80.4, -64.4, -73.1, -55.7, -39.5, -18, -46.3, -41.4, -61.2, -100 (2×), -45, -71.9, -0.923, -64.5, -62.3, -40.9, -31.5, -31.8, -51, -45.9, -20.3, -61.7, -65.2, -60.1, -72, -77.6, -40.3, -30.4, -38, -53.2, -58.1 (2×), -10.2, -74.7, -37.5, -94.5, -98.3, -85.6, -84.7, -71.2, -48.9, -64.1, -49.7 (2×), -40.8, -36.3, -17, -30.1, -60.7, -61.1, -81.9, -89.4, -57.6, -21, -87.5, -32.8, -14.4, -68, -65.6, -37.2, -6.02, -27.3, -23.5, -12.1, -58.5, -76.4, -43.7, -56.5, -46.2, -59, 3.28, 1.54, -51.6, -15.9 (2×), -22.3, -23.1, -42.7, -53.4, 7.07, -11.1, 2.23% and inactive: 11.7%, 44.8%, 92.4%”. For the same molecule, the growth (NCI-H460 lung; runs of 1993) was “active: -37.8, -63.9, -23.9, -4.96, -39.9, 7.59, 1.5, 1.77, 2.21, -42.7, -42.3, 4.19, -35.7, -6.46, 0.0288, -10.6, -4.44, -2.28, -12.5, -46.5, -33.3, -48.4, -9.76, -32.1, -50.4, 5.31, -33, -24.4, 0.767, -42.4, -22.9, -22, -19.3, -64.3, -26.6, -29.8, 0.891, -15.5, -63, -34.1, -13.7, -30.4, 3.45, -24.5, -6.3, -35.5% and inactive: 94.9%, 77%”, the growth (NCI-H460 lung; runs of 1994) was “active: 3.68, -34.5, -21.2, -17.1, -44.7, -31.1, -31.2, -51.4, -64.6, -18, 1.85, 2.17, -44.3, -12.2, 7.56, -66.4, -4.04, 0.472, -52.2, -28.3, -40.9, -43.2, -4.73, -29.3, -52.1, -19.2, 7.6, -47.3, -14.5, -10.5, -66.1, -55.1, -60.3% and inactive: 11%” and the growth (NCI-H460 lung; runs of 1995) was “active: -30.8, -81.4, -24.6, -19.4, -33.9, -76, 1.67, 2.24, -86.1, -10.1, 4.87, -65.8, -61.4, -5.21, -5.48, -77.9, -87.4, -12.7, -38.4, -65.3, -35.1, -21.4, -26.2, -26.7, -52.9, -26.9, -31.3, -17, -20.5, -6.16, -66.3, -51.2, -22.3, -43.8, -25.9, -60.1% and inactive: 12.6%”.

Source: PubChem BioAssay (NCI)
